Data reported in the supplement of paper PMC8728848.
This is one part of the list.

Assays:
Assay in all cases: glycan array binding signal (z-score within array); higher = stronger binding
Conditions in all cases: glycan notation: IUPAC condensed, linker removed; mutation: N224Q
[1] = target: Neu5Ac(a2-3)Gal(b1-4)GlcNAc(b1-3)[Neu5Ac(a2-3)Gal(b1-4)GlcNAc(b1-6)]GalNAc
How it was run: (§1)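 From the Consortium for Functional Glycomics database, 3228 arrays were curated, keeping only those whose protein sequence was available. Binding is given as a within-array Z-score averaged across arrays sharing a protein sequence and across linkers. Negative Z-scores can be read as non-binding.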

[2] = target: Neu5Ac(a2-3)Gal(b1-4)GlcNAc(b1-6)GalNAc
How it was run: as §1

[3] = target: Neu5Ac(a2-3)Gal(b1-4)GlcNAc(b1-6)[Gal(b1-3)]GalNAc
How it was run: as §1

[4] = target: Neu5Ac(a2-3)Gal(b1-4)GlcNAc(b1-6)[Neu5Ac(a2-3)Gal(b1-3)]GalNAc
How it was run: as §1

[5] = target: Neu5Ac(a2-3)Gal(b1-4)GlcNAc6S
How it was run: as §1

[6] = target: Neu5Ac(a2-3)Gal(b1-4)[Fuc(a1-3)]GlcNAc
How it was run: as §1

[7] = target: Neu5Ac(a2-3)Gal(b1-4)[Fuc(a1-3)]GlcNAc(b1-2)Man
How it was run: as §1

[8] = target: Neu5Ac(a2-3)Gal(b1-4)[Fuc(a1-3)]GlcNAc(b1-3)Gal
How it was run: as §1

[9] = target: Neu5Ac(a2-3)Gal(b1-4)[Fuc(a1-3)]GlcNAc(b1-3)Gal(b1-4)GlcNAc
How it was run: as §1

[10] = target: Neu5Ac(a2-3)Gal(b1-4)[Fuc(a1-3)]GlcNAc(b1-3)Gal(b1-4)[Fuc(a1-3)]GlcNAc(b1-3)Gal(b1-4)[Fuc(a1-3)]GlcNAc
How it was run: as §1

[11] = target: Neu5Ac(a2-3)Gal(b1-4)[Fuc(a1-3)]GlcNAc(b1-3)GalNAc
How it was run: as §1

[12] = target: Neu5Ac(a2-3)Gal(b1-4)[Fuc(a1-3)]GlcNAc(b1-6)[Gal(b1-3)]GalNAc
How it was run: as §1

[13] = target: Neu5Ac(a2-3)Gal(b1-4)[Fuc(a1-3)]GlcNAc(b1-6)[Neu5Ac(a2-3)Gal(b1-3)]GalNAc
How it was run: as §1

[14] = target: Neu5Ac(a2-3)Gal(b1-4)[Fuc(a1-3)]GlcNAc6S
How it was run: as §1

[15] = target: Neu5Ac(a2-3)Gal6S(b1-4)GlcNAc
How it was run: as §1

[16] = target: Neu5Ac(a2-3)Gal6S(b1-4)[Fuc(a1-3)]GlcNAc
How it was run: as §1

Neu5Ac(a2-3)GalNAc = target: Neu5Ac(a2-3)GalNAc
How it was run: as §1

[17] = target: Neu5Ac(a2-3)GalNAc(b1-4)GlcNAc
How it was run: as §1

[18] = target: Neu5Ac(a2-3)[GalNAc(b1-4)]Gal(b1-4)Glc
How it was run: as §1

[19] = target: Neu5Ac(a2-3)[GalNAc(b1-4)]Gal(b1-4)GlcNAc
How it was run: as §1

[20] = target: Neu5Ac(a2-3)[GalNAc(b1-4)]Gal(b1-4)GlcNAc(b1-3)GalNAc
How it was run: as §1

[21] = target: Neu5Ac(a2-3)[Neu5Ac(a2-6)]GalNAc
How it was run: as §1

Neu5Ac(a2-6)Gal = target: Neu5Ac(a2-6)Gal
How it was run: as §1

[22] = target: Neu5Ac(a2-6)Gal(b1-3)GlcNAc(b1-3)[Gal(b1-4)GlcNAc(b1-6)]Gal(b1-4)Glc
How it was run: as §1

Neu5Ac(a2-6)Gal(b1-4)Glc = target: Neu5Ac(a2-6)Gal(b1-4)Glc
How it was run: as §1

[23] = target: Neu5Ac(a2-6)Gal(b1-4)GlcNAc
How it was run: as §1

[24] = target: Neu5Ac(a2-6)Gal(b1-4)GlcNAc(b1-2)Man
How it was run: as §1

[25] = target: Neu5Ac(a2-6)Gal(b1-4)GlcNAc(b1-2)Man(a1-3)Man(b1-4)GlcNAc(b1-4)GlcNAc
How it was run: as §1

[26] = target: Neu5Ac(a2-6)Gal(b1-4)GlcNAc(b1-2)Man(a1-3)[Gal(b1-4)GlcNAc(b1-2)Man(a1-6)]Man(b1-4)GlcNAc(b1-4)GlcNAc
How it was run: as §1

[27] = target: Neu5Ac(a2-6)Gal(b1-4)GlcNAc(b1-2)Man(a1-3)[GlcNAc(b1-4)][Neu5Ac(a2-6)Gal(b1-4)GlcNAc(b1-2)Man(a1-6)]Man(b1-4)GlcNAc(b1-4)GlcNAc
How it was run: as §1

[28] = target: Neu5Ac(a2-6)Gal(b1-4)GlcNAc(b1-2)Man(a1-3)[Man(a1-6)]Man(b1-4)GlcNAc(b1-4)GlcNAc
How it was run: as §1

B1: AAL (Aleuria aurantia) (protein)
chain: MPTEFLYTSKIAAISWAATGGRQQRVYFQDLNGKIREAQRGGDNPWTGGSSQNVIGEAKLFSPLAAVTWKSAQGIQIRVYCVNKDNILSEFVYDGSKWITGQLGSVGVKVGSNSKLAALQWGGSESAPPNIRVYYQKSNGSGSSIHEYVWSGKWTAGASFGSTVPGTGIGATAIGPGRLRIYYQATDNKIREHCWDSNSWYVGGFSASASAGVSIAAISWGSTPQIRVYWQKGREELYEAAYGGSWNTPGQIKDASRPTPSLPDTFIAANSSGNIDISVFFQASGVSLQQWQWISGKGWSIGAVVPTGTPAGW
glycan array binding signal (z-score) [1]: -0.321
glycan array binding signal (z-score) [2]: -0.319
glycan array binding signal (z-score) [3]: -0.256
glycan array binding signal (z-score) [4]: -0.324
glycan array binding signal (z-score) [5]: -0.327
glycan array binding signal (z-score) [6]: 0.758
glycan array binding signal (z-score) [7]: 0.186
glycan array binding signal (z-score) [8]: 1.54
glycan array binding signal (z-score) [9]: 1.39
glycan array binding signal (z-score) [10]: 1.85
glycan array binding signal (z-score) [11]: -0.22
glycan array binding signal (z-score) [12]: -0.28
glycan array binding signal (z-score) [13]: -0.278
glycan array binding signal (z-score) [14]: 0.284
glycan array binding signal (z-score) [15]: 0.529
glycan array binding signal (z-score) [16]: 1.22
glycan array binding signal (z-score) (Neu5Ac(a2-3)GalNAc): -0.294
glycan array binding signal (z-score) [17]: -0.326
glycan array binding signal (z-score) [18]: -0.32
glycan array binding signal (z-score) [19]: -0.323
glycan array binding signal (z-score) [20]: -0.298
glycan array binding signal (z-score) [21]: -0.286
glycan array binding signal (z-score) (Neu5Ac(a2-6)Gal): -0.314
glycan array binding signal (z-score) [22]: -0.321
glycan array binding signal (z-score) (Neu5Ac(a2-6)Gal(b1-4)Glc): -0.319
glycan array binding signal (z-score) [23]: -0.328
glycan array binding signal (z-score) [24]: -0.272
glycan array binding signal (z-score) [25]: -0.315
glycan array binding signal (z-score) [26]: -0.272
glycan array binding signal (z-score) [27]: -0.311
glycan array binding signal (z-score) [28]: -0.318
